Measured values from the supplement of paper PMC8728848.
The other results are listed elsewhere or left out.

Assays:
Assay in all cases: glycan array binding signal (z-score within array); higher = stronger binding
Conditions in all cases: glycan notation: IUPAC condensed, linker removed
[1] = target: Neu5Ac(a2-3)Gal(b1-3)[Fuc(a1-4)]GlcNAc(b1-3)Gal(b1-4)[Fuc(a1-3)]GlcNAc
Procedure, shortened: (§1)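 The Consortium for Functional Glycomics database supplied 3228 glycan arrays, of which those lacking an available protein sequence were dropped. The binding signal, a within-array Z-score, was averaged across arrays of the same protein sequence and across linkers. Negative scores can be read as non-binding.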

[2] = target: Neu5Ac(a2-3)Gal(b1-3)[Neu5Ac(a2-3)Gal(b1-4)]GlcNAc
Procedure, shortened: as §1

[3] = target: Neu5Ac(a2-3)Gal(b1-3)[Neu5Ac(a2-6)]GalNAc
Procedure, shortened: as §1

[4] = target: Neu5Ac(a2-3)Gal(b1-4)Glc
Procedure, shortened: as §1

[5] = target: Neu5Ac(a2-3)Gal(b1-4)GlcNAc
Procedure, shortened: as §1

[6] = target: Neu5Ac(a2-3)Gal(b1-4)GlcNAc(b1-2)Man(a1-3)[GlcNAc(b1-2)Man(b1-4)GlcNAc(b1-2)Man(a1-6)]Man(b1-4)GlcNAc(b1-4)GlcNAc
Procedure, shortened: as §1

[7] = target: Neu5Ac(a2-3)Gal(b1-4)GlcNAc(b1-2)Man(a1-3)[Neu5Ac(a2-6)Gal(b1-4)GlcNAc(b1-2)Man(a1-6)]Man(b1-4)GlcNAc(b1-4)GlcNAc
Procedure, shortened: as §1

[8] = target: Neu5Ac(a2-3)Gal(b1-4)GlcNAc(b1-3)Gal(b1-3)GlcNAc
Procedure, shortened: as §1

[9] = target: Neu5Ac(a2-3)Gal(b1-4)GlcNAc(b1-3)Gal(b1-4)GlcNAc
Procedure, shortened: as §1

[10] = target: Neu5Ac(a2-3)Gal(b1-4)GlcNAc(b1-3)Gal(b1-4)GlcNAc(b1-3)Gal(b1-4)GlcNAc
Procedure, shortened: as §1

[11] = target: Neu5Ac(a2-3)Gal(b1-4)GlcNAc(b1-3)Gal(b1-4)[Fuc(a1-3)]GlcNAc
Procedure, shortened: as §1

[12] = target: Neu5Ac(a2-3)Gal(b1-4)GlcNAc(b1-6)[Gal(b1-3)]GalNAc
Procedure, shortened: as §1

[13] = target: Neu5Ac(a2-3)Gal(b1-4)GlcNAc(b1-6)[Neu5Ac(a2-3)Gal(b1-3)]GalNAc
Procedure, shortened: as §1

[14] = target: Neu5Ac(a2-3)Gal(b1-4)GlcNAc6S
Procedure, shortened: as §1

[15] = target: Neu5Ac(a2-3)Gal(b1-4)[Fuc(a1-3)]GlcNAc
Procedure, shortened: as §1

[16] = target: Neu5Ac(a2-3)Gal(b1-4)[Fuc(a1-3)]GlcNAc(b1-3)Gal
Procedure, shortened: as §1

[17] = target: Neu5Ac(a2-3)Gal(b1-4)[Fuc(a1-3)]GlcNAc(b1-3)Gal(b1-4)GlcNAc
Procedure, shortened: as §1

[18] = target: Neu5Ac(a2-3)Gal(b1-4)[Fuc(a1-3)]GlcNAc(b1-3)Gal(b1-4)[Fuc(a1-3)]GlcNAc(b1-3)Gal(b1-4)[Fuc(a1-3)]GlcNAc
Procedure, shortened: as §1

[19] = target: Neu5Ac(a2-3)Gal(b1-4)[Fuc(a1-3)]GlcNAc(b1-6)[Gal(b1-3)]GalNAc
Procedure, shortened: as §1

[20] = target: Neu5Ac(a2-3)Gal(b1-4)[Fuc(a1-3)]GlcNAc6S
Procedure, shortened: as §1

[21] = target: Neu5Ac(a2-3)Gal6S(b1-4)GlcNAc
Procedure, shortened: as §1

[22] = target: Neu5Ac(a2-3)Gal6S(b1-4)[Fuc(a1-3)]GlcNAc
Procedure, shortened: as §1

[23] = target: Neu5Ac(a2-3)GalNAc
Procedure, shortened: as §1

[24] = target: Neu5Ac(a2-3)GalNAc(b1-4)GlcNAc
Procedure, shortened: as §1

[25] = target: Neu5Ac(a2-3)[GalNAc(b1-4)]Gal(b1-4)Glc
Procedure, shortened: as §1

[26] = target: Neu5Ac(a2-3)[GalNAc(b1-4)]Gal(b1-4)GlcNAc
Procedure, shortened: as §1

[27] = target: Neu5Ac(a2-3)[Neu5Ac(a2-6)]GalNAc
Procedure, shortened: as §1

[28] = target: Neu5Ac(a2-6)Gal
Procedure, shortened: as §1

[29] = target: Neu5Ac(a2-6)Gal(b1-4)Glc
Procedure, shortened: as §1

[30] = target: Neu5Ac(a2-6)Gal(b1-4)GlcNAc
Procedure, shortened: as §1

[31] = target: Neu5Ac(a2-6)Gal(b1-4)GlcNAc(b1-2)Man(a1-3)[Gal(b1-4)GlcNAc(b1-2)Man(a1-6)]Man(b1-4)GlcNAc(b1-4)GlcNAc
Procedure, shortened: as §1

[32] = target: Neu5Ac(a2-6)Gal(b1-4)GlcNAc(b1-2)Man(a1-3)[GlcNAc(b1-2)Man(a1-6)]Man(b1-4)GlcNAc(b1-4)GlcNAc
Procedure, shortened: as §1

[33] = target: Neu5Ac(a2-6)Gal(b1-4)GlcNAc(b1-2)Man(a1-3)[GlcNAc(b1-2)Man(b1-4)GlcNAc(b1-2)Man(a1-6)]Man(b1-4)GlcNAc(b1-4)GlcNAc
Procedure, shortened: as §1

[34] = target: Neu5Ac(a2-6)Gal(b1-4)GlcNAc(b1-2)Man(a1-3)[Neu5Ac(a2-6)Gal(b1-4)GlcNAc(b1-2)Man(a1-6)]Man(b1-4)GlcNAc(b1-4)GlcNAc
Procedure, shortened: as §1

[35] = target: Neu5Ac(a2-6)Gal(b1-4)GlcNAc(b1-2)Man(a1-6)[Gal(b1-4)GlcNAc(b1-2)Man(a1-3)]Man(b1-4)GlcNAc(b1-4)GlcNAc
Procedure, shortened: as §1

[36] = target: Neu5Ac(a2-6)Gal(b1-4)GlcNAc(b1-2)Man(a1-6)[GlcNAc(b1-2)Man(a1-3)]Man(b1-4)GlcNAc(b1-4)GlcNAc
Procedure, shortened: as §1

[37] = target: Neu5Ac(a2-6)Gal(b1-4)GlcNAc(b1-3)Gal(b1-4)GlcNAc
Procedure, shortened: as §1

[38] = target: Neu5Ac(a2-6)Gal(b1-4)GlcNAc(b1-3)Gal(b1-4)[Fuc(a1-3)]GlcNAc(b1-3)Gal(b1-4)[Fuc(a1-3)]GlcNAc
Procedure, shortened: as §1

[39] = target: Neu5Ac(a2-6)Gal(b1-4)GlcNAc6S
Procedure, shortened: as §1

[40] = target: Neu5Ac(a2-6)GalNAc
Procedure, shortened: as §1

[41] = target: Neu5Ac(a2-6)GalNAc(b1-4)GlcNAc
Procedure, shortened: as §1

[42] = target: Neu5Ac(a2-8)Neu5Ac
Procedure, shortened: as §1

[43] = target: Neu5Ac(a2-8)Neu5Ac(a2-3)Gal(b1-4)Glc
Procedure, shortened: as §1

[44] = target: Neu5Ac(a2-8)Neu5Ac(a2-3)[GalNAc(b1-4)]Gal(b1-4)Glc
Procedure, shortened: as §1

[45] = target: Neu5Ac(a2-8)Neu5Ac(a2-8)Neu5Ac
Procedure, shortened: as §1

[46] = target: Neu5Ac(a2-8)Neu5Ac(a2-8)Neu5Ac(a2-3)Gal(b1-4)Glc
Procedure, shortened: as §1

[47] = target: Neu5Ac(a2-8)Neu5Ac(a2-8)Neu5Ac(a2-3)[GalNAc(b1-4)]Gal(b1-4)Glc
Procedure, shortened: as §1

[48] = target: Neu5Ac(a2-8)Neu5Ac(a2-8)Neu5Ac(a2-8)Neu5Ac(a2-3)[GalNAc(b1-4)]Gal(b1-4)Glc
Procedure, shortened: as §1

[49] = target: Neu5Ac(b2-6)Gal(b1-4)GlcNAc
Procedure, shortened: as §1

[50] = target: Neu5Ac(b2-6)GalNAc
Procedure, shortened: as §1

[51] = target: Neu5Ac9Ac(a2-6)Gal(b1-4)GlcNAc
Procedure, shortened: as §1

[52] = target: Neu5Gc(a2-3)Gal(b1-3)GlcNAc
Procedure, shortened: as §1

[53] = target: Neu5Gc(a2-3)Gal(b1-3)[Fuc(a1-4)]GlcNAc
Procedure, shortened: as §1

[54] = target: Neu5Gc(a2-3)Gal(b1-4)Glc
Procedure, shortened: as §1

[55] = target: Neu5Gc(a2-3)Gal(b1-4)GlcNAc
Procedure, shortened: as §1

[56] = target: Neu5Gc(a2-3)Gal(b1-4)[Fuc(a1-3)]GlcNAc
Procedure, shortened: as §1

[57] = target: Neu5Gc(a2-6)Gal(b1-4)GlcNAc
Procedure, shortened: as §1

[58] = target: Neu5Gc(a2-6)GalNAc
Procedure, shortened: as §1

[59] = target: Neu5Gc(b2-6)Gal(b1-4)GlcNAc
Procedure, shortened: as §1

B1: SLR2P2A3 (Tachypleus tridentatus), TAL2_TACTR (protein)
chain: MEKGTPPTHDSDNWMGRAKKIGNGGWNQFQFLFFDPNGYLYAVSKDKLYKASPPQSDTDNWIARATEIGSGGWSGSKFLFFHPNGYLYAVHGQRLYKALPPVSNQD
- glycan array binding signal (z-score) [1]: -0.27
- glycan array binding signal (z-score) [2]: -0.467
- glycan array binding signal (z-score) [3]: -0.3
- glycan array binding signal (z-score) [4]: -0.109
- glycan array binding signal (z-score) [5]: -0.372
- glycan array binding signal (z-score) [6]: -0.371
- glycan array binding signal (z-score) [7]: -0.104
- glycan array binding signal (z-score) [8]: -0.517
- glycan array binding signal (z-score) [9]: -0.386
- glycan array binding signal (z-score) [10]: -0.48
- glycan array binding signal (z-score) [11]: -0.426
- glycan array binding signal (z-score) [12]: 0.321
- glycan array binding signal (z-score) [13]: 0.065
- glycan array binding signal (z-score) [14]: 0.669
- glycan array binding signal (z-score) [15]: -0.063
- glycan array binding signal (z-score) [16]: -0.555
- glycan array binding signal (z-score) [17]: -0.473
- glycan array binding signal (z-score) [18]: -0.46
- glycan array binding signal (z-score) [19]: -0.593
- glycan array binding signal (z-score) [20]: 0.206
- glycan array binding signal (z-score) [21]: -0.562
- glycan array binding signal (z-score) [22]: -0.561
- glycan array binding signal (z-score) [23]: -0.397
- glycan array binding signal (z-score) [24]: -0.293
- glycan array binding signal (z-score) [25]: -0.322
- glycan array binding signal (z-score) [26]: -0.428
- glycan array binding signal (z-score) [27]: -0.201
- glycan array binding signal (z-score) [28]: 0.457
- glycan array binding signal (z-score) [29]: -0.383
- glycan array binding signal (z-score) [30]: 0.1
- glycan array binding signal (z-score) [31]: -0.472
- glycan array binding signal (z-score) [32]: -0.504
- glycan array binding signal (z-score) [33]: -0.234
- glycan array binding signal (z-score) [34]: -0.151
- glycan array binding signal (z-score) [35]: -0.308
- glycan array binding signal (z-score) [36]: -0.496
- glycan array binding signal (z-score) [37]: -0.076
- glycan array binding signal (z-score) [38]: -0.495
- glycan array binding signal (z-score) [39]: -0.494
- glycan array binding signal (z-score) [40]: -0.16
- glycan array binding signal (z-score) [41]: -0.303
- glycan array binding signal (z-score) [42]: -0.527
- glycan array binding signal (z-score) [43]: -0.296
- glycan array binding signal (z-score) [44]: -0.279
- glycan array binding signal (z-score) [45]: -0.163
- glycan array binding signal (z-score) [46]: -0.509
- glycan array binding signal (z-score) [47]: -0.261
- glycan array binding signal (z-score) [48]: -0.513
- glycan array binding signal (z-score) [49]: -0.452
- glycan array binding signal (z-score) [50]: -0.308
- glycan array binding signal (z-score) [51]: -0.421
- glycan array binding signal (z-score) [52]: -0.355
- glycan array binding signal (z-score) [53]: -0.071
- glycan array binding signal (z-score) [54]: -0.253
- glycan array binding signal (z-score) [55]: -0.059
- glycan array binding signal (z-score) [56]: -0.349
- glycan array binding signal (z-score) [57]: 0.284
- glycan array binding signal (z-score) [58]: -0.125
- glycan array binding signal (z-score) [59]: -0.08
